# The full ranking holds about 33,000 sequences; the median of “E-score (-0.5 to 0.5)” is about -0.021, and the highest 2% start at about 0.32. The list shows a part of the results.
# Biological target: T1, Zap1 (UniProt P47043)
# T1 sequence: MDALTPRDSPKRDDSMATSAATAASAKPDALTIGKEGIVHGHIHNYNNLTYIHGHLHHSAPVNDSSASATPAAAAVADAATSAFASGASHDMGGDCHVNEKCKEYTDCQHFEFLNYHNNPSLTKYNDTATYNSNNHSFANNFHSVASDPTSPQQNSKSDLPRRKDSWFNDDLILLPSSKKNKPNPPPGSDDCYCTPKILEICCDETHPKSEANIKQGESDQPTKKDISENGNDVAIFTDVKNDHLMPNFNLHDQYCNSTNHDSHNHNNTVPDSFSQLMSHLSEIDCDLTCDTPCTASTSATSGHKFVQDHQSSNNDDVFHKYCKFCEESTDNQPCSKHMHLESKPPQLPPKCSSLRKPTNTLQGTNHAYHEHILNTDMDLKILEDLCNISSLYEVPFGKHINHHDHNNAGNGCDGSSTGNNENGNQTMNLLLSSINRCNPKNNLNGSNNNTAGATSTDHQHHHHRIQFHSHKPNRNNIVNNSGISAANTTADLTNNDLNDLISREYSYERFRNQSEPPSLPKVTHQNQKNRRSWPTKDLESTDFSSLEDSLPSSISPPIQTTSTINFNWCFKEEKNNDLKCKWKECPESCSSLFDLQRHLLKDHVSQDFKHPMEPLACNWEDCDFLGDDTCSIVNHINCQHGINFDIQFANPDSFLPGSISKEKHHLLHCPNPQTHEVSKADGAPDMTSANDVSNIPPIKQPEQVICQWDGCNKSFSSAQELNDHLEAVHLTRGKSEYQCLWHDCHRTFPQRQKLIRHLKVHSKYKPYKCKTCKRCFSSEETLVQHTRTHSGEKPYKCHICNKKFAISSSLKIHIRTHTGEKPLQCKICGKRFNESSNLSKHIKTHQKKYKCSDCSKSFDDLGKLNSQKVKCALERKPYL
# Test: PBM E-score (8-mer binding enrichment) (E-score (-0.5 to 0.5)); higher = stronger / more preferred TF binding; most listed sequences are background and not binding sites
# Conditions: protein concentration: 200 nM; construct: GST-full length
# Description: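 Universal 'all 10-mer' protein binding microarrays (Agilent AMADID 015681) probed with GST-tagged S. cerevisiae TFs (full-length or DBD) made by in vitro transcription/translation (PURExpress), about 100-200 nM. Bound TF was detected with fluorescent anti-GST. Each ungapped 8-mer (which stands for itself and its reverse complement) is scored by the PBM enrichment score (E-score), a modified Wilcoxon-Mann-Whitney statistic from -0.5 to +0.5, computed with the Universal PBM Analysis Suite. Scale: above 0.35 generally sequence-specific binding.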
row,Sequence,PBM E-score
1,CCGATTCG,0.0615
2,ACGGTCAA,0.177
3,CCTGGGAA,0.107
4,AACGATAA,-0.0511
5,CATTACGA,0.043
6,ATAACCCG,0.442
7,CCTGATCA,-0.103
8,CGTCATCC,-0.0469
9,AAAGGATC,-0.0691
10,CGACCATA,0.0398
11,ATACGTCG,-0.263
12,AGCCCGCT,-0.401
13,TACAAATA,0.0955
14,AAAGACAT,-0.236
15,AAAGTTAC,0.224
16,AGGGGCAT,-0.0286
17,CGGACCAC,0.0856
18,CATTTGTA,0.0822
19,AGACTGAG,-0.249
20,GGTATTAA,0.254
21,ACGGACTG,-0.178
22,CGCCTGCA,-0.183
23,CGAACTAA,0.137
24,GACGACGA,-0.144
25,GGAAATCC,0.0669

row,Sequence,PBM E-score
1,AAAAACCA,0.301
2,GCGATAAC,0.268
3,CATGTGAG,-0.292
4,CCGTATGC,-0.226
5,CAGAAGGA,-0.165
6,GCGCGACC,0.168
7,GTCCATGA,-0.0462
8,AACCTAAG,0.198
9,AGCCCTCG,-0.161
10,CAGTTAAA,0.189
11,TTCTTAAA,-0.028
12,AACAGATG,-0.00675
13,CCCGCAAA,0.201
14,AAACAAAA,0.141
15,TACCTAGA,0.163
16,AACTAGGG,0.173
17,ACAAAAAA,0.317
18,CACTGTCA,0.0475
19,CTCGCCTA,0.103
20,CGCGAGAA,-0.129
21,CAGGAAAA,0.109
22,AATGTGTA,-0.00653
23,GGAGACAC,-0.127
24,CACTATAC,-0.00462
25,AGGGACGG,-0.345

row,Sequence,PBM E-score
1,CGCCGCGC,-0.0986
2,CAGAAGCC,-0.173
3,TATCGCAA,0.152
4,GAGTGAAC,-0.0653
5,ACAAAGCA,0.104
6,AGCTCACG,-0.192
7,ACTTAACA,0.01
8,CGCTACAC,-0.164
9,ATACCTGC,0.062
10,ATCGTAAT,0.119
11,AGCTAATG,-0.157
12,CCATTCAA,0.0385
13,CGAGACAA,-0.15
14,GATGTGCA,-0.177
15,ATGTTTTC,0.134
16,ATCAAATA,0.115
17,ATGACGTA,-0.0713
18,ATGGTTGC,0.0738
19,CAAGAACG,0.0457
20,ATCATCTA,-0.0564
21,ACCCAGCA,0.0307
22,ATCCTAAT,0.0542
23,CACCCAGA,0.199
24,CCTTGTTC,0.125
25,ATAGTGAC,0.0407

row,Sequence,PBM E-score
1,CATTGGCG,-0.249
2,GCAGCGAA,-0.137
3,ATTCTAGG,0.0946
4,CTACAGAC,-0.0509
5,AGGAACAG,-0.183
6,AGATTCAG,-0.0502
7,CAAAGGGG,0.00785
8,CCTAGGCC,-0.0276
9,CGGAGTGA,-0.138
10,AGCCAGCG,-0.332
11,ACTCTCCT,-0.264
12,CAAAGATC,0.0185
13,AATGTCAG,-0.192
14,ACTCTCTA,-0.0413
15,GCCGACGC,-0.188
16,ACCGGCAA,0.00718
17,AACAGCCG,-0.0886
18,CAGATGAA,-0.103
19,GACGACAC,0.0795
20,ACAGCATA,-0.164
21,AGTTTACC,0.0916
22,GCAGCGCA,-0.24
23,CTTTATCA,0.0803
24,AAACGCCC,-0.185
25,ATGCATCA,0.0512

row,Sequence,PBM E-score
1,CACAACTC,0.151
2,CAAACAAG,-0.108
3,GCATCTCA,-0.125
4,ATACAAGG,0.0518
5,CTCCGGAG,0.114
6,ACATTGAG,-0.0894
7,GACTTAGA,-0.303
8,CAACAAAA,0.17
9,CACCCTTC,0.135
10,TTACATAA,0.0316
11,TCCGCGGA,-0.0609
12,AGGAAACG,-0.206
13,CCCGTAAC,0.306
14,TGAGGCAA,-0.177
15,ACTCTATG,0.0053
16,ACGGTCAG,0.0381
17,ACTGTGAA,0.0644
18,ACTCGATC,-0.0618
19,CAAGGCGA,-0.182
20,CACTTGCA,-0.105
21,GGTGAGAA,0.0265
22,TCCAGAAA,-0.0224
23,CAGTTACG,-0.0217
24,CTAAGTGA,0.0127
25,ATGCTATC,-0.0723

row,Sequence,PBM E-score
1,GAATTGTC,-0.211
2,CGACCCAA,0.125
3,ATCTGAGG,0.094
4,AGCAGAGG,-0.116
5,ACGTTCTC,-0.23
6,CTCCCGCC,-0.206
7,CGCTTCAC,-0.309
8,GGGGAACA,-0.0495
9,ATACCCGA,0.224
10,AGAGTAGG,-0.0788
11,ACTCTTGC,0.0703
12,ATGATAGG,-0.0377
13,AGTCAAAT,-0.135
14,AGGGTCCA,0.214
15,GCATACGC,-0.175
16,AGCAGTAA,-0.0418
17,CAGAGCGA,-0.0856
18,GTGGTTTA,0.213
19,AGGGGCGA,-0.0973
20,TTATTCAA,0.191
21,ACATCTAA,-0.0571
22,GCGCGCCA,0.0479
23,CCTCGCAA,0.0775
24,AACCCTCG,0.292
25,AGTAGAAG,-0.125

row,Sequence,PBM E-score
1,AAGACAGT,-0.096
2,ACAGGGGC,-0.0479
3,CAGTGGTA,0.216
4,CCCCGAAC,0.108
5,AATCTGGG,0.13
6,ATAAGCGG,-0.0148
7,GCACCCAC,0.0806
8,AAGGGGAA,-0.225
9,AGCTAGGA,-0.285
10,AACAGACT,-0.0825
11,ACTAGGAT,-0.0534
12,CCCGTACC,0.119
13,AACGATCA,-0.00703
14,AAACTGAG,-0.125
15,CAGTTAGC,-0.293
16,GTGGCCGA,-0.00924
17,AGCAGGAC,-0.0469
18,GTGGATTA,-0.00084
19,CACTCAGA,0.0859
20,AGTATTTC,0.156
21,ATGACCGG,0.0181
22,TATGTGGA,-0.0214
23,GATTCTCC,-0.198
24,CCCCTGAC,0.113
25,AAACTCGT,0.00536

row,Sequence,PBM E-score
1,CCCTTCAA,0.0124
2,ACTCGAGC,0.14
3,TAGGAGAA,-0.0857
4,AAATCGGT,-0.0736
5,CTCCTCGC,-0.326
6,AGCCGCTC,-0.0957
7,ATATGCGG,-0.00291
8,CAAGTACC,0.263
9,AGCGCCAT,-0.275
10,ACGGAGTG,-0.263
11,AACTCTAG,0.00907
12,AGATCCCT,-0.132
13,AGGTCGGC,0.0206
14,AGCCGCTG,-0.182
15,ACCCGTGA,0.247
16,CACCTTCA,0.0231
17,ACCACACC,0.192
18,CTGCTAAC,-0.0957
19,AAGGAGGT,0.0856
20,GGGACCCC,0.0441
21,ACCATCCC,0.0577
22,ACTCCAAA,0.0435
23,CTTCCCTA,-0.233
24,AGTTGCCA,-0.0808
25,CCTGTCGA,-0.184

row,Sequence,PBM E-score
1,CTGGTAAC,0.255
2,AAAATGAG,-0.078
3,CACTGTGC,-0.0154
4,CACAGGGG,0.00685
5,AATGACGG,0.173
6,TGCGAACA,0.0594
7,ATCGCTAG,-0.0377
8,GGGGAAGA,-0.0556
9,CTTAAAAC,0.234
10,CGCCGGCG,0.0909
11,CGCTAGAC,-0.201
12,CATTAAAG,0.152
13,AATCGGGT,0.311
14,ACAACACC,0.0341
15,GAAATAGA,0.113
16,GGCCCCCC,-0.179
17,GTCTCGCA,-0.168
18,GAAGTACC,0.153
19,CAGTCGTA,-0.0677
